# Source: PubChem BioAssay AID1645882 (National Center for Advancing Translational Sciences (NCATS), 2021)
# Out of some 16,000 compounds screened, about 120 (0.75%) were called active. Another 4% or so got no clear call; they are omitted. Calls come from the whole dose curve; as a rule, active = well fitted inhibition curve with a large enough effect; inconclusive = small, poorly fitted or top-dose-only effect; inactive = no such curve, though single readings can be large or run the other way. This is one part of the list.
# Biological target: Rap guanine nucleotide exchange factor 3 (Homo sapiens) (UniProt O95398)
# Assay: Validation qHTS for antagonist of cAMP-regulated guanine nucleotide exchange factor 3 (EPAC1); note: nearly all actives have a fitted effect of over 75% in size;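 for activity change, negative = inhibition: plate controls were DMSO for no effect and ATA control for full effect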
# Details: EPAC1 Rap1B-BODIPY-GDP exchange, fluorescence; series mostly up to 150 µM; activity change, negative = inhibition: at the top concentration
# Outline: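 Nucleotide exchange followed as fluorescence loss when BODIPY-GDP leaves Rap1B (480 nm excitation, 540 nm emission), read at 5 min intervals over 30 min. Reaction: 100 nM EPAC1, 250 nM RAP1B-BODIPY-GDP, 50 uM GDP; ATA and DMSO define normalization.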
# Potency is the fitted concentration of half-maximal effect.
# UniProt O95398, sequence (O95398 whole entry, looked up): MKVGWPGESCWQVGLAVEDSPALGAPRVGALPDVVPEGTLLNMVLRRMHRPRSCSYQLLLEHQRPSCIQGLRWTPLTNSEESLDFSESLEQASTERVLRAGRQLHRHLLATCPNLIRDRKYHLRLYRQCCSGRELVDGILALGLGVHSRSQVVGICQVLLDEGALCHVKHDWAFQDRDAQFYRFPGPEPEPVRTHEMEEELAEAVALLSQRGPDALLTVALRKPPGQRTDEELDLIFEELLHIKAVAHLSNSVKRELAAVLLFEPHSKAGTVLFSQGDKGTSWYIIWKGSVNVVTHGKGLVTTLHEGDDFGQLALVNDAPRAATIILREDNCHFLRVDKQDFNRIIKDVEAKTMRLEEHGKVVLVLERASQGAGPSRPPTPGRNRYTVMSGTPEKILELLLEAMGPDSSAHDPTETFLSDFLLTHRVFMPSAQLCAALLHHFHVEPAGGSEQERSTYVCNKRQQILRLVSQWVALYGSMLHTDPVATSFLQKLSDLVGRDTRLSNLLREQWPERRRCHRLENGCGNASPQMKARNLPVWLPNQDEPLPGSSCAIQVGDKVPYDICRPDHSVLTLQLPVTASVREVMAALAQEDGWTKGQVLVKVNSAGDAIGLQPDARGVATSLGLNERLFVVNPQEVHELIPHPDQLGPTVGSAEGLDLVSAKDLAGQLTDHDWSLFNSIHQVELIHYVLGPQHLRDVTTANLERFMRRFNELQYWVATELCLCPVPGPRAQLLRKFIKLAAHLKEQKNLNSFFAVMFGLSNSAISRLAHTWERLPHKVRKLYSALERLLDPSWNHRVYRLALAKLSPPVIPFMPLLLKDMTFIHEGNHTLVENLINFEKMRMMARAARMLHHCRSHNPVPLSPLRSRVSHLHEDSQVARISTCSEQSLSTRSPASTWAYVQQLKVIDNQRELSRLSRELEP
Molecule,"activity change, negative = inhibition",Potency
Cn1c(=O)c(-c2cccc(Cl)c2)nc2cncnc21,inactive: -2.57%,
Cc1cnc(SCC2CCCO2)nc1C1CCCN(C(=O)c2ccc(S(N)(=O)=O)cc2)C1 (stereo not given),inactive: 0.839%,
C/C=C(\C)C(=O)OC1c2c(ccc3ccc(=O)oc23)OC(C)(C)C1OC(C)=O (stereo not given),inactive: 15.6%,
CC(=O)NCCCS(=O)(=O)O,inactive: 7.65%,
COc1ccccc1-c1ccnc(-n2ncc(C(=O)NC3CCCN(Cc4ccccc4)C3)c2C)n1 (stereo not given),inactive: 16.6%,
O=P(O)(O)O,inactive: -0.768%,
COc1ccc2c(c1OC)C(=O)O[C@@H]2[C@H]1c2c(cc3c(c2OC)OCO3)CCN1C,inactive,
COCCNc1ncnc2ccc(-c3c(C)noc3C)cc12,inactive: 10.3%,
COc1ccc(CNCC(O)COc2ccc3[nH]c(=O)ccc3c2)cc1OC (stereo not given),inactive: 36.5%,
Cc1cccnc1-c1cccc2c1OC(CNC(=O)Cn1cncn1)C2 (stereo not given),inactive: 10.4%,
Cc1oc(-c2ccccc2NC(=O)c2ccsc2)nc1CN(C)Cc1ccc2c(c1)CCCN2C,inactive: 3.32%,
O=C(c1csnn1)N1CCC2(CCCN(c3cccc(-c4ccccc4)c3)C2)CC1,inactive: 6.51%,
Cn1c(=O)c(-c2cccs2)nc2cnc(OCc3ccccc3)nc21,inactive: 8.37%,
O=S(=O)(c1ccccc1)N1CCC2(CC1)CN(Cc1nccs1)C2,inactive: -0.855%,
CC/C=C\C/C=C\C/C=C\CCCCCCCCCC(=O)O,inactive: 17.8% [at 15.3 µM],
N#C/C(=C\c1ccc(-c2cc(Cl)ccc2Cl)o1)C(=O)Nc1cccc2ncccc12,inactive: 13% [at 75.8 µM],
Cc1ccc(C)c(CN2C[C@H](Sc3ccccn3)C[C@H]2C(=O)Nc2ccc3sc(C)nc3c2)c1,inactive: 32.9%,
CN1CCN(c2ncnc3ccc(-c4ccc5c(c4)OCO5)cc23)CC1,inactive: 14.8%,
C[C@@H](CSc1ccccc1)CN1CC[C@H](O)CCC1=O,inactive: 10.4%,
N#Cc1cc2c(OCC(O)CN3CCN(C(c4ccccc4)c4ccccc4)CC3)cccc2[nH]1 (stereo not given),inactive,
H-LVVYPWTQR-OH,inactive: -3.11% [at 15.3 µM],
CC(C)(C)NCC(O)COc1cccc2c1CCC(=O)N2 (stereo not given),inactive: 11.7% [at 75.8 µM],
Cc1nc2cnc(N(C)C)nc2n(C[C@H]2CCCO2)c1=O,inactive: 6.52%,
O=C(NCC1Cc2cccc(-c3ccccn3)c2O1)c1cnn2cccnc12 (stereo not given),inactive: -13.9%,
Cc1cnc(SCc2ccccn2)nc1C1CCCN(C(=O)c2ccc3[nH]c(C)c(C)c3c2)C1 (stereo not given),inactive: 13%,

Molecule,"activity change, negative = inhibition",Potency
Cc1noc(C)c1-c1nc(N2CCN(C)CC2)c2ccccc2n1,inactive: 12.9%,
CN(Cc1ccco1)c1cc(-c2ccccc2C(F)(F)F)ncn1,inactive: 13.2%,
CC(C)C[C@H](NC(=O)[C@H](O)[C@H](N)Cc1ccccc1)C(=O)O,inactive: -1.22% [at 75.8 µM],
CCC1CN(CC(=O)NC(c2ccccn2)C(F)(F)F)Cc2cc(OC)ccc2O1 (stereo not given),inactive: 15.2%,
CC(=O)O[C@@]1(C(C)=O)CCC2C3C=C(C)C4=CC(=O)CCC4(C)C3CCC21C (stereo not given in full),inactive: -18.8%,
CN1CCC(=C2c3ccccc3CCc3cccnc32)CC1,inactive: 24%,
Oc1cc(O)c2c(c1)O[C@H](c1ccc(O)c(O)c1)[C@H](O)C2,,active: 79.4 µM
Cc1nn(C)cc1CNc1nc(C)c(-c2ccn(CC3COc4ccccc4O3)n2)s1 (stereo not given),inactive: -4.44%,
Nc1nc2ccc(OC(F)(F)F)cc2s1,inactive,
COc1ccc2c(c1)c(CC(=O)O)c(C)n2C(=O)c1ccc(Cl)cc1,inactive,
CCSc1nnc(C(C)NC(=O)c2ccc(OC)cc2)n1C (stereo not given),inactive: 6.61%,
c1csc(CNc2ccnc(-c3ccc4c(c3)OCO4)n2)c1,inactive: -8.97%,
COc1cccc(-c2ccnc(-n3ncc(C(=O)N(C)CCc4ccccn4)c3C)n2)c1,inactive: 3.99%,
OC1(c2cccnc2)CCN(Cc2ccc3c(c2)CN(Cc2ccc(Cl)cc2)CCO3)CC1,inactive: 4.31%,
COc1ccccc1C(=O)N[C@@H]1c2ccccc2C2(CCN(Cc3c(O)cccc3OC)CC2)[C@H]1O,inactive: 22%,
COc1ccc2[nH]cc(CCNc3cc(-c4ccccc4C)ncn3)c2c1,inactive: -9.05%,
O=C(O)[C@@H](O)[C@H](O)[C@H](O)[C@@H](O)C(=O)O,inactive: 34.9%,
Cc1ncc(Cc2ccccc2)c(C2CCN(S(=O)(=O)C[C@]34CC[C@H](CC3=O)C4(C)C)CC2)n1,inactive: -15.6%,
COc1ccc(C(=O)N2CCC3(CCN(CC(C)C)CC3)CC2)cc1,inactive: 27.2%,
O=C(c1ccco1)N1CCC2(CCCN(Cc3ccncc3)C2)CC1,inactive: 11.4%,
O=C(O)c1cc(=O)cc(C(=O)O)[nH]1,inactive: -7.38% [at 75.8 µM],
CC(=O)OC1C[C@@]2(C)C(c3ccoc3)OC(=O)C3O[C@@]32[C@]2(C)C(OC(C)=O)CC3C(C)(C)C(OC(C)=O)CC(OC(C)=O)[C@@]3(C)C12 (stereo not given in full),inactive: -2.27%,
COc1cc(-c2cc(C)c3c(OC)ccc(OC)c3n2)cc2c1OCCN(C(=O)C(C)c1n[nH]c(=O)c3ccccc13)C2 (stereo not given),inactive: -2.01%,
COc1ccc2[nH]cc(CC(N)C(=O)O)c2c1 (stereo not given),inactive,
COC(=O)N1CCC2(CCCN(Cc3ccccc3OC)C2)CC1,inactive: 27.3%,
